# Measurements as given in PMC4336329 (PLoS ONE, 2015).
# The whole screen tested about 310,000 compounds, of which about 14,000 (4.5%) showed an effect of 50% or more. The effect is printed as a negative number. The list shows a part of the results.
# Target: human ether-à-go-go-related gene (hERG) potassium channel (human, UniProt Q12809)
# Experiment: primary screen, population patch clamp on CHO cells stably expressing hERG
# 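Also: peak tail current of the secondary pulse compared with the same well before compound.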
# Sequence of human ether-à-go-go-related gene (hERG) potassium channel (Q12809 whole entry, looked up): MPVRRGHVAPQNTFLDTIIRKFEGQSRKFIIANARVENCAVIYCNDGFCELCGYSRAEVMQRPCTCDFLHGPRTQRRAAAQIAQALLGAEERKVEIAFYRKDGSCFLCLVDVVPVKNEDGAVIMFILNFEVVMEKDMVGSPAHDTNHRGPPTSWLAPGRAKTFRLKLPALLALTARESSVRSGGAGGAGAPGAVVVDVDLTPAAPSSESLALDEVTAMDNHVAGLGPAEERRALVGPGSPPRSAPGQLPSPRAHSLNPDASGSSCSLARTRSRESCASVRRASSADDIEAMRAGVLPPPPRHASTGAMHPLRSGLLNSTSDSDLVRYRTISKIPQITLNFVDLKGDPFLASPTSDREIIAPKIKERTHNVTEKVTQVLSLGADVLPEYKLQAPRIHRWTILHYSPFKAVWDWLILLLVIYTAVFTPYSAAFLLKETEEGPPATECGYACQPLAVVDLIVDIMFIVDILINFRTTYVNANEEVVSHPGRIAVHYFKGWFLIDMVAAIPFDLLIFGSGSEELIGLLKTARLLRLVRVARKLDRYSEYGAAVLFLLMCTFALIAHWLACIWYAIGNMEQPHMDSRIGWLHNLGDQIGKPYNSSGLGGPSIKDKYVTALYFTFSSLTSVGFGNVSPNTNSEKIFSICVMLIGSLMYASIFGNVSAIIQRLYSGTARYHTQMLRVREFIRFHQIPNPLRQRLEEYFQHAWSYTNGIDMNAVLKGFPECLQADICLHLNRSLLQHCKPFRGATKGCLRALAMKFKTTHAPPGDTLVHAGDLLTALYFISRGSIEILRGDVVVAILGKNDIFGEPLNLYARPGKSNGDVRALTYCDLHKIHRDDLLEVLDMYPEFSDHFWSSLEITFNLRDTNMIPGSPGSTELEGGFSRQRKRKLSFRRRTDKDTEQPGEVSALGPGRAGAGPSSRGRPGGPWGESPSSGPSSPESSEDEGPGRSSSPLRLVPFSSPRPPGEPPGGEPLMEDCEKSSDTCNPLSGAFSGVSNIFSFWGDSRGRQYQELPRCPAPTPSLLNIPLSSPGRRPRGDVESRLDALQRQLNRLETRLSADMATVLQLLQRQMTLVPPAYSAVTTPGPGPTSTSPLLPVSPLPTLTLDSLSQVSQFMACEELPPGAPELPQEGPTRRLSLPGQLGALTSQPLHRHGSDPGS
row,Structure (SMILES),"hERG current change (%, negative = inhibition) at 10uM"
1,COc1ccc(OC)c(NC(=O)CSC2=C(C#N)C(c3ccco3)C3=C(CCCC3=O)N2)c1 (stereo not drawn),-18.5%
2,Cc1cc(NC(=O)C2CC=CCC2C(=O)O)ccc1NC(=O)c1ccccc1 (stereo not drawn),9.88%
3,CCn1c(SCC(=O)N2CCCCCC2)nc2ccccc2c1=O,-10.4%
4,COCCCNC(=O)CN(CCc1ccccc1)S(=O)(=O)c1ccccc1,-1.75%
5,CCCC(C(=O)O)N1C(=O)/C(=C2\C(=O)N(C)c3ccccc32)SC1=S (stereo not drawn),-2.58%
6,CC1(C)CC(NCc2ccccc2)CCO1.Cl (stereo not drawn),5.1%
7,O=C(O)c1ccccc1C(=O)NCc1cccnc1,-32.8%
8,COc1ccc(NC(=O)c2ccccc2NC(=O)c2cccs2)cc1,22.4%
9,CCCCN(C(=S)SC)C1CCS(=O)(=O)C1 (stereo not drawn),-14.9%
10,CCN(CC)CC(=O)Nc1ccc(/C(C)=N/NC2=NCCN2)cc1,-5.05%
11,CC1CCCN(S(=O)(=O)c2ccc(NC(=O)C3CCN(C(=O)c4ccco4)CC3)cc2)C1 (stereo not drawn),-40.9%
12,CC1CCCN(C(=O)COC(=O)C2CCN(S(=O)(=O)c3ccc(Cl)c(C(F)(F)F)c3)CC2)C1 (stereo not drawn),-1.8%
13,COc1cccc(C(=O)Nc2c[nH]c(=O)[nH]c2=O)c1,6.49%
14,CCOc1cccc2cc(C(=O)NCCC3=CCCCC3)c(=O)oc12,10.1%
15,CCc1ccc(N2C(=O)C3C4CCC(C4=C(C)C)C3C2=O)cc1 (stereo not drawn),-3.05%
16,COc1ccc(C2Nc3ccccc3C(=O)N2Cc2ccccc2)cc1OC (stereo not drawn),7.78%
17,Cc1ccc(-c2ccc(SCC(=O)NC3CCCC3)nn2)cc1,15.4%
18,O=C(CC(=O)Nc1ccc(Br)cc1)Nc1ccc(Br)cc1,27.1%
19,CC(=O)N1N=C(c2ccc(C)cc2)OC1c1ccc(Br)cc1 (stereo not drawn),27.8%
20,CCOC(=O)C1CCCN(C(=O)c2ccc([N+](=O)[O-])cc2)C1 (stereo not drawn),-14.4%
21,COCCCNC(=O)CCCCCNS(=O)(=O)c1ccc(Br)cc1,-21.4%
22,COc1ccccc1-n1c(SCC(=O)Nc2cc(C)on2)nc2c(c1=O)SCC2,-7.17%
23,CC(=O)c1ccc(S(=O)(=O)N2CCN(c3nc4c(C)c(C)ccc4cc3C#N)CC2)cc1,11.3%

row,Structure (SMILES),"hERG current change (%, negative = inhibition) at 10uM"
1,COc1ccc(NC(=O)COc2ccc(C)cc2)c([N+](=O)[O-])c1,7%
2,COc1ccccc1NC(=O)CN1C(=O)CCS(=O)(=O)c2ccccc21,1.01%
3,CCOC(=O)Cc1csc(NC(=O)COc2ccc(N(C)S(=O)(=O)c3ccc(C)cc3)cc2)n1,-23.8%
4,O=C(O)c1cnc(-c2ccccc2)nc1Sc1ccccc1Cl,4.88%
5,CC(=O)N1CCCc2cc(S(=O)(=O)N(CC(C)C)CC(C)C)ccc21,-50.4%
6,Cc1ccc(-c2noc(-c3ccccc3C(=O)NCc3ccco3)n2)cc1,-6.1%
7,O=C(CCCO)c1ccc2c(c1)OCCO2,16.8%
8,Cc1cc(C)cc(NC(=O)/C=C/c2ccc([N+](=O)[O-])s2)c1,4.35%
9,CCn1c(=O)n(CC)c2cc(N3CCCC3)c(NC(=O)c3ccccc3Br)cc21,-8.24%
10,COc1ccccc1NS(=O)(=O)c1ccc(C(=O)N2CC(C)OC(C)C2)cc1 (stereo not drawn),5.53%
11,O=C(c1ccccc1F)N1CCN(c2ccccc2)CC1,0.71%
12,CCOC(=O)/C(C(N)=NCCCO)=C(/O)c1ccccc1,-9.17%
13,CCOc1ccc(C(C)NC(=O)c2ccc3c(c2)NC(=O)C(C)S3)cc1OCC (stereo not drawn),1.73%
14,CC(C)C(C(=O)NC(C)(C)C)N(CCN1CCOCC1)C(=O)CNS(=O)(=O)c1ccccc1 (stereo not drawn),0.875%
15,Cc1ccc(-c2nc(CS(=O)CC(=O)NC(C)CCc3ccccc3)c(C)o2)cc1 (stereo not drawn),-46.2%
16,O=C(N/N=C/c1ccco1)c1ccc2nc[nH]c2c1,20.9%
17,Cc1ccc(S(=O)(=O)N2CCC(C(=O)OC3CCOC3=O)CC2)cc1C (stereo not drawn),-12.1%
18,CCc1ccc(Nc2cc(C)nc3ncnn23)cc1,-23.9%
19,Cc1cccc(-n2nc3c(c2NC(=O)c2ccco2)CSC3)c1C,0.725%
20,CN(C(=O)c1ccccc1C(=O)OCC(=O)NCc1cccs1)C1CCCCC1,14.1%
21,CCOc1ccc(/C(CCC(=O)O)=N/NC(=S)NCCc2ccccc2)cc1,-2.93%
22,Cc1ccc(C(=O)OCC(=O)c2c[nH]c3ccccc23)cc1,7.5%
